Results: PubChem BioAssay (NCATS)
This list was built around the results that the source calls inconclusive (neither active nor inactive); the mix of calls is not that of the screen. For some of these results: A potency beside an inconclusive call is a rough fit, not a confirmed value. Calls of active or inactive are those of the source. Unless noted, calls come from the whole dose curve; as a rule, active = well fitted curve in the direction sought with a large enough effect; inconclusive = small, poorly fitted or top-dose-only effect, or another doubt; inactive = no such curve, though single readings can be large; an effect the other way counts as inactive or inconclusive.

What was measured:
[1] = Cell Viability - Jurkat (AID 426;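 active = dose-dependent loss of cell ATP signal giving a full or clear fitted curve, ranked by lower potency value; inconclusive = weak partial curve or response only at the top dose; inactive = no loss of viability signal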;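 note: potency is the fitted concentration of half-maximal effect; cells exposed to compound for 40 hours at 37 °C before ATP read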); settings: qHTS
Outline: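 Seed 5000 Jurkat E6-1 cells/well; add compound; incubate 40 hr at 37 °C; add CellTiter-Glo; wait 20 min at room temperature; read luminescence. Fit concentration-response with Hill equation for AC50.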

[2] = Cell Viability - Hek293 (AID 427;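 active = compounds whose dose-response curve shows a full or clear partial loss of cell viability, called from curve shape rather than a numeric limit; inconclusive = weak partial curves or an effect only at the top dose; inactive = no dose-dependent loss of viability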;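 note: potency is the fitted concentration of half-maximal effect; cells exposed to compound for 40 hours at 37 °C before reading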); settings: qHTS
Outline: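 qHTS, human embryonic kidney (adenovirus-transformed) cells; 40 hr cpd, 37 °C; CellTiter-Glo ATP luminescence. Norm: DMSO = 0, 100 uM tamoxifen = 100% inhibition. Hill-fit AC50.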

[3] = Cell Viability - HepG2 (AID 433; calls by dose curve;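 note: potency is the fitted concentration of half-maximal effect; potency for ATP loss meaning cytotoxicity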); settings: qHTS
Outline: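 HepG2 hepatocellular carcinoma cells (1500/well) were treated with compounds for 40 h at 37 °C in complete medium; intracellular ATP was read by CellTiter-Glo luminescence. Data were normalized to DMSO and 100 uM tamoxifen, and AC50 came from Hill fits.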

[4] = Cell Viability - SK-N-SH (AID 435; calls by dose curve;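 note: potency is the fitted concentration of half-maximal effect; compound exposure lasted 40 h at 37 °C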); settings: SK-N-SH neuroblastoma cell viability qHTS
Outline: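 SK-N-SH human neuroblastoma cells (1500/well) were exposed to compounds in complete medium for 40 h at 37 °C, and intracellular ATP was then measured by CellTiter-Glo luminescence. AC50 was taken from Hill fits, normalized to DMSO and 100 uM tamoxifen.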

[5] = Cell Viability - N2a (AID 540); settings: N2a mouse neuroblastoma cell viability; activity change, negative = cytotoxicity: at 92.2 µM (top of the series);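 note: plate controls were DMSO alone for no effect and tamoxifen control for full effect; nearly all actives have a fitted effect of over 45% in size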
Outline: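 First, 1500 N2a cells per well incubate 5 hr at 37 °C; next, compounds are added and incubated 40 hr at 37 °C; finally CellTiter-Glo is added and luminescence read after 20 min, with AC50 derived by Hill modeling.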

[6] = Cell Viability - NIH 3T3 (AID 541); settings: NIH 3T3 cell viability, qHTS; activity change, negative = cytotoxicity: at 92.2 µM (top of the series);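 note: plate controls were DMSO alone for no effect and tamoxifen positive control for full effect; nearly all actives have a fitted effect of over 25% in size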
Outline: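 AC50 values reflect concentration-dependent loss of intracellular ATP in NIH 3T3 cells after 40 hr treatment in complete culture medium, quantified by luciferase-based luminescence.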

[7] = Cell Viability - H-4-II-E (AID 543); settings: H-4-II-E rat hepatoma viability; series mostly up to 92.2 µM; note: potency is the fitted concentration of half-maximal effect; nearly all actives have a fitted effect of over 35% in size
Outline: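 Here, cytotoxicity is measured in the rat hepatoma line H-4-II-E as loss of intracellular ATP after 40 hr compound treatment, detected by luciferase luminescence.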

[8] = Cell Viability - Mesenchymal (AID 546); settings: mesenchymal cells viability, qHTS; activity change, negative = cytotoxicity: at 91.7 µM (top of the series);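 note: cells exposed to compound for 40 hours before reading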
Outline: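 AC50 values reflect the drop in intracellular ATP in a human kidney mesenchymal line derived from normal glomeruli. Treatment lasts 40 hr at 37 °C in complete medium, and the signal comes from CellTiter-Glo luminescence.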

[9] = Cellular Toxicity (caspase-3) Jurkat (AID 655); settings: Jurkat caspase-3 activation, luminescence; caspase-3 activation: at 92.2 µM (top of the series), DMSO = 0%, tamoxifen = 100%;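 note: cells exposed to compound for 16 h at 37 °C before reading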
Outline: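 Jurkat cells (5000/well) in complete medium were treated with compounds for 16 hr at 37 °C, then Caspase-Glo 3/7 luminescence was read after 20 min at room temperature. Data normalized to DMSO (basal) and 100 uM tamoxifen (100%); AC50 from Hill fit.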

[10] = Cellular Toxicity (caspase-3) SHSY5Y (AID 657); settings: SH-SY5Y caspase-3 activation; series mostly up to 91.7 µM; note: potency is the fitted concentration of half-maximal effect
Outline: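 SH-SY5Y human neuroblastoma cells (1500/well) were treated with compounds for 16 h at 37 °C, then Caspase-Glo 3/7 luminescence was read after 1 h at room temperature. Data normalized to DMSO and 10 uM staurosporine; AC50 from Hill fits.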

[11] = Cellular Toxicity (caspase-3) Mesangial (AID 660); settings: mesangial cells, normalized: DMSO 0%, 100 µM tamoxifen 100%; at 91.7 µM (top of the series);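 note: combined caspase 3 and 7 activity read by Caspase-Glo luminescence; cells exposed to compound for 16 h before the caspase read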
Outline: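 Concentration-response qHTS: compound-induced rise in caspase 3/7 luminescence in human mesangial cells after 16 h, normalized to DMSO and 100 uM tamoxifen controls.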

[12] = Cellular Toxicity (caspase-3) SK-N-SH (AID 661); settings: SK-N-SH caspase-3 activation, qHTS; caspase-3 activation: at 91.7 µM (top of the series), DMSO as zero, staurosporine as full
Outline: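 Caspase 3/7 activation is measured as a luminescence increase from aminoluciferin released by substrate cleavage in SK-N-SH cells after 16 hr compound treatment; values are AC50 from concentration-response curves.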

[13] = Cellular Toxicity (caspase-3) N2a (AID 665); settings: N2a cells, luminescence; Potency: caspase-3 activation; caspase-3 activation: at 92.2 µM (top of the series), normalized: DMSO 0%, 10 µM staurosporine 100%;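 note: compound exposure lasted 16 h at 37 °C before readout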
Outline: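 Plated mouse neuroblastoma N2a cells received titrated compounds for 16 h in complete medium. Caspase activity was then detected with a peptide-aminoluciferin luminescent reagent.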

[14] = MultiTox-Fluor Cytotoxicity Assay - LYMP1-001 - Dead Cells (AID 946); settings: LYMP1-001 lymphoblastoid cells, dead-cell protease fluorescence; cytotoxicity (dead cells): at 92.2 µM (top of the series); note: potency is the fitted concentration of half-maximal effect
Outline: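 Seed 2500 LYMP1-001 cells/well, incubate 5 hr at 37 C; add compound, 16 hr at 37 C; add MultiTox-Fluor reagent, 60 min RT; read dead-cell fluorescence Ex/Em=485/520. Normalize to DMSO and 15 uM tetraoctylammonium bromide.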

[15] = Cell Viability - LYMP1-002 - Assay at 16 hr (AID 948); settings: LYMP1-002 lymphoblastoid cell viability; series mostly up to 92.2 µM; note: potency is the fitted concentration of half-maximal effect
Outline: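 Human lymphoblastoid cells (LYMP1-002), 2500/well, were preincubated 5 hr at 37 C, then exposed to compounds for 16 hr at 37 C in complete medium. Cellular ATP was read by CellTiter-Glo luminescence after 30 min at room temperature; AC50 from Hill fits.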

[16] = MultiTox-Fluor Cytotoxicity Assay - LYMP1-002 - Live Cells (AID 955); settings: LYMP1-002 lymphoblastoid live-cell protease fluorescence viability; series mostly up to 46.1 µM; note: potency is the fitted concentration of half-maximal effect
Outline: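 Cytotoxicity in the human lymphoblastoid line LYMP1-002 is measured as loss of live-cell protease activity after 16 h treatment in complete culture medium. AC50 is derived from Hill-equation fits of qHTS concentration-response data.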

[17] = MultiTox-Fluor Cytotoxicity Assay - LYMP1-002 - Dead Cells (AID 960); settings: LYMP1-002 lymphoblastoid cells, dead-cell protease fluorescence; cytotoxicity (dead cells): at 46.1 µM (top of the series); note: potency is the fitted concentration of half-maximal effect; nearly all actives have a fitted effect of over 60% in size
Outline: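 Acute cytotoxicity in a human lymphoblastoid line is scored as rising dead-cell protease signal after 16 hr exposure at 37 C, measured fluorometrically (485/520).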

[18] = MultiTox-Fluor Cytotoxicity Assay - LYMP1-003 - Live Cells (AID 962); settings: LYMP1-003 lymphoblastoid cells, MultiTox-Fluor live-cell protease fluorescence; series mostly up to 92.2 µM; note: potency is the fitted concentration of half-maximal effect
Outline: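 Cells plated at 2500 per well and incubated 5 hr; compounds added and incubated 16 hr at 37 C; MultiTox-Fluor reagent added for 60 min at room temperature; fluorescence of liberated AFC measured at 405/510 nm.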

[19] = Cell Viability - LYMP1-003 - Assay at 24 hr (AID 963); settings: LYMP1-003 lymphoblastoid cell viability; series mostly up to 92.2 µM; note: potency is the fitted concentration of half-maximal effect
Outline: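 Acute toxicity in LYMP1-003 lymphoblastoid cells: 24 hr compound treatment at 37 C, ATP measured with CellTiter-Glo after 30 min at room temperature. AC50 derived by fitting the Hill equation to qHTS titrations.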

[20] = Cell Viability - LYMP1-003 - Assay at 40 hr (AID 964); settings: LYMP1-003 lymphoblastoid viability; series mostly up to 92.2 µM; note: potency is the fitted concentration of half-maximal effect; nearly all actives have a fitted effect of over 60% in size
Outline: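 This qHTS cytotoxicity screen treats human lymphoblastoid cells (LYMP1-003) with compounds for 40 hr and quantifies cellular ATP via luciferase luminescence.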

[21] = Cell Viability - LYMP2-005 (AID 967); settings: LYMP2-005 lymphoblastoid cell viability; series mostly up to 92.2 µM; note: potency is the fitted concentration of half-maximal effect
Outline: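 CellTiter-Glo luminescence (cellular ATP) read-out; LYMP2-005 lymphoblastoid cells, 2500/well, 5 h pre-incubation, then 24 h compound exposure at 37 C in complete medium. Tetraoctylammonium bromide positive control; AC50 by standard Hill fit.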

[22] = Cell Viability - LYMP2-013 (AID 970); settings: LYMP2-013 lymphoblastoid cells viability; activity change, negative = cytotoxic: at 92.2 µM (top of the series); note: potency is the fitted concentration of half-maximal effect; nearly all actives have a fitted effect of over 55% in size
Outline: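 Acute toxicity was measured in human lymphoblastoid cells (2500/well) exposed to compound titrations for 24 hr, with ATP luminescence (CellTiter-Glo) as read-out and AC50 fitted by Hill equation.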

[23] = Cell Viability - LYMP2-019 (AID 973); settings: LYMP2-019 lymphoblastoid cell line viability; series mostly up to 92.2 µM; note: potency is the fitted concentration of half-maximal effect; nearly all actives have a fitted effect of over 55% in size
Outline: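 Cells plated at 2500/well and allowed 5 hr at 37 C before compound addition. After 24 hr incubation, CellTiter-Glo reagent was added, plates sat 30 min at room temperature, and luminescence was recorded.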

[24] = Cell Viability - LYMP2-021 (AID 974); settings: LYMP2-021 lymphoblastoid cells viability; series mostly up to 92.2 µM;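 note: potency is the fitted concentration of half-maximal effect; compound exposure lasts 24 hours at 37 °C; nearly all actives have a fitted effect of over 55% in size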
Outline: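 Concentration-response cytotoxicity in a human lymphoblastoid line: 24 hr treatment at 37 C in complete culture medium, tetraoctylammonium bromide as positive control, luminescent ATP quantitation as viability measure.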

[25] = Cell Viability - LYMP2-006 (AID 978); settings: LYMP2-006 lymphoblastoid cell viability, qHTS; series mostly up to 92.2 µM; note: potency is the fitted concentration of half-maximal effect; nearly all actives have a fitted effect of over 60% in size
Outline: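 Human lymphoblastoid cells, 2500 per well, were preincubated 5 hr at 37 C, then exposed to compounds for 24 hr at 37 C in complete medium. Viability was read as intracellular ATP by CellTiter-Glo luminescence; AC50 from Hill-equation fits of qHTS concentration-response data.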
Tags give direction and shape of the fitted curve.

O=C1OC(O)C(C(Cl)Cl)=C1Cl (stereo not given)
active: Potency [1] 21.3 µM | Potency [4] 30.2 µM | activity change, negative = cytotoxicity [5] -101% | Potency [17] 31.6 µM | Potency [21] 15.8 µM | Potency [22] 25.1 µM | Potency [23] 25.1 µM | Potency [24] 20 µM | Potency [25] 25.1 µM
inconclusive: Potency [2] 113 µM [single point] | Potency [3] 128 µM [single point] | activity change, negative = cytotoxicity [6] -57.6% | Potency [7] 50.1 µM [falling, partial curve] | activity change, negative = cytotoxicity [8] -40.9% | caspase-3 activation [9] 14% | Potency [10] 31.6 µM [rising, single point] | caspase-3 activation [11] 37% | caspase-3 activation [12] 40.1% | caspase-3 activation [13] 42.5% | Potency [14] 63.1 µM [cytotoxic, single point] | Potency [15] 79.4 µM [cytotoxic, single point] | Potency [16] 31.6 µM [cytotoxic, partial curve] | Potency [18] 50.1 µM [cytotoxic, partial curve, poor fit] | Potency [19] 50.1 µM [cytotoxic, partial curve] | Potency [20] 50.1 µM [cytotoxic, partial curve, poor fit]
